Reference: patent publication US7964221B2, “Composition and methods of use of an immunomodulator” (priority 2006, dated 2011)

Test system: opportunistic infections (OI) and co-infections

## zidovudine (AZT), lamividine (3TC), and efavirenz (EFV) [AZT/3TC/EFV]
32 week reporting period
  Patients with opportunistic infections (OI): 6 (30%) N(%)
32 weeks treatment period
  Cachexia: 3(15%) N(%)
  Herpes: 4 (20%) N(%)
  Oral/esophageal candidiasis: 4 (20%) N(%)
32 weeks treatment period, relapses
  Hepatitis C: 2 (10%) N(%)
